Measured values reported in patent US20250145722A1, “ANTI-GAL3 ANTIBODIES AND METHODS OF USE” (TrueBinding, Inc., priority 2020, published 2025).

What was measured:
[1] = biological target: T1, Gal3-induced Aβ42 oligomers (Homo sapiens, UniProt P17931); test: Disruption of Gal3-induced Aβ42 oligomers (dot blot, A11/6E10); format: biochemical; details: hGal3-65-250 isoform-induced Aβ-42 oligomers; within 1 hour; FIG. 63D
T1 construct: The anti-Gal3 antibodies were incubated with hGal3-65-250 isoform-induced Aβ-42 oligomers; made in house

GL261-LUC brain tumor = test: PARP Western blot of brain tumor lysates; format: in vivo, Albino C57BL6 mice; details: PARP normalized to GAPDH; <1 indicates increased apoptotic activity; FIG. 34D-E
Protocol: GL261-LUC (5×10^5) were transplanted into the forebrain of the recipient animals (1 mm posterior of bregma, 2 mm lateral of midline and 3.5 mm deep, employing a stereotaxic frame (Stoelting, 51725D)). Implantation was confirmed using imaging of tumor luminescence. Briefly, luminescent images were obtained 10 min after injection with XenoLight D-Luciferin-K+ Salt Bioluminescent Substrate (Perkin Elmer, cat #122799, prepared according to manufacturer protocol) using an IVIS-Spectrum CT Imaging System (PerkinElmer). When bioluminescence flux detected in brains of injected animals reached 106 photons/second, the animals were injected i.v. with biotinylated anti-GAL3 antibodies (10 mg/kg). Four days later, the animals were sacrificed, and blood and brain tissue samples were collected.
To determine the biological activity of antibodies in brain tissue, the levels of antibody-induced apoptosis was analyzed in tumor samples. Brain tumor lysates were probed for the marker of cell death PARP on a Western blot. […] Finally, protein was detected by adding Supersignal West Pico Chemiluminescent substrate (Thermo-Fisher, 34579) to the membrane for 1 minute and imaged using Azure Biosystem c400. […]
Images were imported in ImageJ software and the signal intensity in each sample was quantified as a measure of protein quantity. […]

[2] = Brain penetration of biotinylated anti-GAL3 antibodies in GL261-LUC glioma mice (ELISA of plasma and brain lysates); format: in vivo, Albino C57BL6 mice; details: biotinylated antibody 10 mg/kg i.v.; four days later; FIG. 34A-C
Text: To validate ability of anti-GAL3 antibodies to penetrate tumor tissue, 7-week old Albino C57BL6 mice (The Jackson laboratory) were orthotopically transplanted with murine glioma cells GL261 that stably express firefly luciferase gene (GL261-LUC).
To generate GL261-LUC cells, GL261 murine glioblastoma cell line (DSMZ, no. ACC 802) was transduced with pLL-CMV-Luciferase-T2A-Puro Lenti-Labeler™ Pre-packaged Virus (SBI, catalog No. LL150VA-1) employing transduction reagent (TransDux MAX Transduction reagent, SBI, catalog No. LV860A-1) according to the manufacturer's instructions. […]
To generate biotinylated anti-GAL3 antibodies, biotinylation was performed with (EZ-Link™ NHS-PEG4-Biotin, No-Weigh™ Format, ThermoFisher Scientific, A39259) using the manufacturer's protocol. […] The final concentrations of biotinylated samples were calculated based on their UV absorption at 280 nm.
GL261-LUC (5×10^5) were transplanted into the forebrain of the recipient animals (1 mm posterior of bregma, 2 mm lateral of midline and 3.5 mm deep, employing a stereotaxic frame (Stoelting, 51725D)). Implantation was confirmed using imaging of tumor luminescence. […] When bioluminescence flux detected in brains of injected animals reached 106 photons/second, the animals were injected i.v. with biotinylated anti-GAL3 antibodies (10 mg/kg). […]

T1 sequence (P17931 65-250): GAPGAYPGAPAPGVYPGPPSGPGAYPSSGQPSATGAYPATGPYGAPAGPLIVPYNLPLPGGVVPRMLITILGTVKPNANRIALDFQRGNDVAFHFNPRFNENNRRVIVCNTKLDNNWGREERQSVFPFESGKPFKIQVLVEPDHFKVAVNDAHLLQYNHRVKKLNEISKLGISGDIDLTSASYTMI

B1: 846C.1B2: anti-Gal3 antibody (antibody)
heavy: QIQLVQSGPELKKPGETVKISCKASGYTFTNYGMNWVKQAPGKGLKWMGWINTYTGEPSYADDFKGRFAFSLETSASTAYLQINNLKNEDMATYFCARWGGYAGDYYAMDFWGQGTSVTVSSASTKGPSVFPLAPCSRSTSESTAALGCLVKDYFPEPVTVSWNSGALTSGVHTFPAVLQSSGLYSLSSVVTVPSSSLGTKTYTCNVDHKPSNTKVDKRV[letters of human IgG4 Fc with S228P (EU numbers) omitted]
light: NIWLTQSPSSLAVSAGEMVTMTCKSSQSVLYSSNQKNYLAWYQQKPGQSPKLLIYWASTRESGVPDRFTGSGSGTDFSLTISSVQAEDLAVYYCHQYLSSLTFGAGTKLELKRTVAAPSVFIFPPSDEQLKSGTASVVCLLNNFYPREAKVQWKVDNALQSGNSQESVTEQDSKDSTYSLSSTLTLSKADYEKHKVYACEVTHQGLSSPVTKSFNRGEC
inhibition of Aβ-42 oligomer formation [1]: significant inhibition | levels of PARP in tumor compared to control samples (GL261-LUC brain tumor): reduced levels of PARP | activity in penetrating the blood brain barrier (BBB) [2]: higher penetrance than the rest of the tested clones
